Test results published in paper PMC5892938.
The list shows a part of the results. At the low end of the ranking, values are background and their order means little.

biological target: GST-SBP-SLBP (stem-loop binding protein) (UniProt Q14493); assay: targeted RNA Bind-n-Seq; details: RBNS binding buffer: 25 mM Tris pH 7.5, 150 mM KCl, 3 mM MgCl2, 0.1% Tween, 0.5 mg/mL BSA, 1 mM DTT; 27 nM protein, 750 pM RNA pool; temperature not stated; high values mean tight binding;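 note: DESeq read counts versus GST-SBP nonspecific binding control pulldown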

Sequence | binding signal (log2 fold change)
GGUCACGUCUCAAUCAACUCUUUCUCCAGGGAAAUCCCUGGUUAUCUCAACAGCUCGCAGUCAAG | 0.0175
GGUCACGUCUCAAUCAACUCAGUCCCAGGAGUUUUCUCCUGCAAAUUCAACAGCUCGCAGUCAAG | 0.0718
GGUCACGUCUCAAUCAACUCUUUUCCCAGGGAAACCCCUGGCAAUUUCAACAGCUCGCAGUCAAG | 0.154
GGUCACGUCUCAAUCAACUCUCCCGAGGGGGGGAAAACCCCUUUACCCUCAAAUUCAACAGCUCGCAGUCAAG | -0.142
GGUCACGUCUCAAUCAACUCCUAAGAGGGGGGGAAAACCCCUUUACCCUCAAUGUCAACAGCUCGCAGUCAAG | 0.0263
GGUCACGUCUCAAUCAACUCAUUCUCAGGAGUUUACUCCUGUAAUCUCAACAGCUCGCAGUCAAG | 0.0729
GGUCACGUCUCAAUCAACUCAUCGUCCAGGGAAACCCCUGGCUUAUUCAACAGCUCGCAGUCAAG | -0.0345
GGUCACGUCUCAAUCAACUCAAGUCCAGGAGUUUUCUCCUGUUUUCUCAACAGCUCGCAGUCAAG | -0.0758
GGUCACGUCUCAAUCAACUCAUUCUCCAGGGAAAACCCUGGCUAAUUCAACAGCUCGCAGUCAAG | -0.0762
GGUCACGUCUCAAUCAACUCAUUUUCAGGAGUUUCCUCCUGUAUUUUCAACAGCUCGCAGUCAAG | -0.0899
GGUCACGUCUCAAUCAACUCAUUUUCCAGGGAAAACCCUGGCUUACUCAACAGCUCGCAGUCAAG | 0.1
GGUCACGUCUCAAUCAACUCUAUAGAGGGGGGGAAAACCCCUUUGCCCUCACACUCAACAGCUCGCAGUCAAG | -0.212
GGUCACGUCUCAAUCAACUCAAUUCCAGGAGUUUUCUCCUGCAUUUUCAACAGCUCGCAGUCAAG | 0.0141
GGUCACGUCUCAAUCAACUCAUCUCCAGGAGUUUUCUCCUGUAAACUCAACAGCUCGCAGUCAAG | 0.183
GGUCACGUCUCAAUCAACUCAUCCCCAGGAGUUUCCUCCUGCUUUCUCAACAGCUCGCAGUCAAG | 0.111
GGUCACGUCUCAAUCAACUCAUUUUCAGGAGUUUGCUCCUGCUUUUUCAACAGCUCGCAGUCAAG | 0.215
GGUCACGUCUCAAUCAACUCUCUAGAGGGGGGGAAAACCCCUUUACCCUCACCUUCAACAGCUCGCAGUCAAG | 0.209
GGUCACGUCUCAAUCAACUCCCACGAGGGGGGGAAAACCCCUUUACCCUCUUAUUCAACAGCUCGCAGUCAAG | -0.173

Sequence | binding signal (log2 fold change)
GGUCACGUCUCAAUCAACUCAAUAGAGGGGGGGAAAACCCCUUUACCCUCAACAUCAACAGCUCGCAGUCAAG | -0.117
GGUCACGUCUCAAUCAACUCGUCUUCAGGAGUUUUCUCCUGCAUUCUCAACAGCUCGCAGUCAAG | 0.121
GGUCACGUCUCAAUCAACUCAUAGGAGGGGGGGAAAACCCCUUUACCCUCAAACUCAACAGCUCGCAGUCAAG | -0.215
GGUCACGUCUCAAUCAACUCAUCCUCAGGAGUUUCCUCCUGCAUUCUCAACAGCUCGCAGUCAAG | -0.0411
GGUCACGUCUCAAUCAACUCUUUCUCCAGGGAAACCCCUGGUUUUUUCAACAGCUCGCAGUCAAG | -0.247
GGUCACGUCUCAAUCAACUCCUCUGAGGGGGGGAAAACCCCUUUACCCUCCAAAUCAACAGCUCGCAGUCAAG | 0.246
GGUCACGUCUCAAUCAACUCUUCCUCCAGGGAAAUCCCUGGCAUAUUCAACAGCUCGCAGUCAAG | 0.137
GGUCACGUCUCAAUCAACUCAUUCUCCAGGGAAAGCCCUGGUUAUCUCAACAGCUCGCAGUCAAG | -0.0583
GGUCACGUCUCAAUCAACUCCCAAGAGGGGGGGAAAACCCCUUUGCCCUCCGUAUCAACAGCUCGCAGUCAAG | -0.0928
GGUCACGUCUCAAUCAACUCAUCUUCCAGGGAAACCCCUGGUUUUUUCAACAGCUCGCAGUCAAG | 0.0576
GGUCACGUCUCAAUCAACUCUAUCUCCAGGGAAACCCCUGGUUAUUUCAACAGCUCGCAGUCAAG | -0.0755
GGUCACGUCUCAAUCAACUCUCCUGAGGGGGGGAAAACCCCUUUACCCUCUAAUUCAACAGCUCGCAGUCAAG | -0.16
GGUCACGUCUCAAUCAACUCAUAAGAGGGGGGGAAAACCCCUUUACCCUCCGUUUCAACAGCUCGCAGUCAAG | -0.246
GGUCACGUCUCAAUCAACUCUUUCUCAGGAGUUUCCUCCUGCUUUCUCAACAGCUCGCAGUCAAG | 0.00618
GGUCACGUCUCAAUCAACUCUUUCCCAGGAGUUUUCUCCUGCUUACUCAACAGCUCGCAGUCAAG | 0.137
GGUCACGUCUCAAUCAACUCUUCCCCAGGAGUUUUCUCCUGUUAUGUCAACAGCUCGCAGUCAAG | -0.00236
GGUCACGUCUCAAUCAACUCAAUUUCAGGAGUUUACUCCUGCUUAUUCAACAGCUCGCAGUCAAG | 0.0155
GGUCACGUCUCAAUCAACUCUCAAGAGGGGGGGAAAACCCCUUUGCCCUCAUCAUCAACAGCUCGCAGUCAAG | -0.435
